Measured values: PubChem BioAssay AID360 (National Center for Advancing Translational Sciences (NCATS), 2006)
The whole screen tested about 48,000 compounds, of which about 550 (1.1%) were called active. Inconclusive results (about 4%) are left out. No stated cut-off is given here; in the data, active means potency below about 15 µM; inconclusive means mostly about 16 µM to 33 µM; inactive means weaker than that. The list shows a part of the results.

molecular target: Lysosomal acid glucosylceramidase (Homo sapiens) (UniProt P04062); assay: Glucocerebrosidase; conditions: purified enzyme, resorufin glucoside fluorescence (screen aimed at inhibitors), 20 min;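 further: the screen sought inhibitors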
Summary of the method: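 Compounds titrated against 0.2 nM normal enzyme, 30 uM resorufin beta-D-glucopyranoside substrate, citrate/phosphate buffer with taurocholate and tween-20, pH 5.9. Reaction ran 20 min at room temperature; fluorescence (Ex 548/Em 600) gave AC50.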
Potency means the concentration at half of the fitted maximal effect.

Chain of UniProt P04062 (P04062 whole entry, looked up): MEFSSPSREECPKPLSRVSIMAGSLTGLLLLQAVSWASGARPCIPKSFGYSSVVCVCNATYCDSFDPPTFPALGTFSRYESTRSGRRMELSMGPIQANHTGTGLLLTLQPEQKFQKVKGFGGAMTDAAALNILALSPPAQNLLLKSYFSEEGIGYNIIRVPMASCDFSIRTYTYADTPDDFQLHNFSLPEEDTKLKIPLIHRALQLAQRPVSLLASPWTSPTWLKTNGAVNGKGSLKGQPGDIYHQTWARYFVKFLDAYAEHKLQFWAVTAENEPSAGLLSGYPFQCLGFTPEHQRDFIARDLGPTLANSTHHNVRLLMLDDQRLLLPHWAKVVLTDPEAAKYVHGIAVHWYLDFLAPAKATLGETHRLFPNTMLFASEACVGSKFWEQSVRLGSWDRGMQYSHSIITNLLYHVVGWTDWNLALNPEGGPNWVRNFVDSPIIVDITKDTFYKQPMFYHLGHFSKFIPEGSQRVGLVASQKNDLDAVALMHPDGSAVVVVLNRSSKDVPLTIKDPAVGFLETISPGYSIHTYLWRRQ

Potency, inactive:
CCOC(=O)c1ccc(NC(=O)CN2CCN(CCN=CC3=C(O)CC(C)(C)CC3=O)CC2)cc1 > 76.9 µM
O=C(CCn1c(=O)oc2ccccc21)NC1=NCCS1 > 76.9 µM
Cn1c(=O)cc(SCC(=O)NCC2COc3ccccc3O2)c2ccccc21 (stereo unspecified) > 76.9 µM
Cc1cccc(-n2c(SCC(N)=O)nnc2-c2ccccn2)c1C > 76.9 µM
CCn1c(=N)c(C(N)=O)cc2c(=O)n3cccc(C)c3nc21 > 76.9 µM
c1ccc(COc2ccc(OCCCn3cncn3)cc2)cc1 > 76.9 µM
CCCN=C(N)/C(C(=O)OCC)=C(\O)c1ccc(OC)cc1 > 76.9 µM
COc1ccc(-c2noc(-c3ccc(Br)o3)n2)cc1OC > 76.9 µM
CCCCN(C(=O)c1cc(OC)c(OC)c(OC)c1)C1=CC2CCC(C1)N2C (stereo unspecified) > 76.9 µM
Cc1onc(-c2ccccc2)c1C(=O)Nc1nnc(-c2ccncc2)s1 > 76.9 µM
CN1CCN(C2=C(Cl)C(=O)N(Cc3ccccc3)C2=O)CC1 > 76.9 µM
Nc1c(C(=O)NCc2ccco2)sc2nc3c(cc12)C(=O)CCC3 > 76.9 µM
Cc1ccc(C)c(NS(=O)(=O)c2c(C)nn(C)c2C)c1 > 76.9 µM
COc1ccccc1OCC(=O)NCc1cccs1 > 76.9 µM
COc1cccc(NC(=O)CNC(=O)c2ccccc2)c1 > 76.9 µM
COc1ccc(S(=O)(=O)N2CCCCC2C(=O)O)cc1OC (stereo unspecified) > 76.9 µM
CCn1nnnc1SCC(=O)Nc1cccc(NC(C)=O)c1 > 76.9 µM
Cc1ccc(Cn2c(N3CCCCCC3)nc3c2c(=O)[nH]c(=O)n3C)cc1 > 76.9 µM
CCc1ccccc1NC(=O)CSc1nc2c(c(-c3ccco3)c1C#N)CCCC2 > 76.9 µM
CCCN1C(=O)C(NC(C)=O)c2cc(OC)ccc21 (stereo unspecified) > 76.9 µM
Cc1cccc(CCNC(=O)C2CCN(S(=O)(=O)c3c(C)nn(C)c3C)CC2)c1 > 76.9 µM
COc1cccc(CN(C)C(=O)c2ccc(S(=O)(=O)N3CCCC3)cc2)c1OC > 76.9 µM
FC(F)Oc1ccccc1C1CC(c2ccc(Br)s2)Nc2ncnn21 (stereo unspecified) > 76.9 µM
COc1cc(CN2CCC(C(=O)NC3CCCC3)CC2)ccc1O > 76.9 µM
COc1ccc(/C(O)=C2/C(=O)C(=O)N(Cc3cccnc3)C2c2ccncc2)cc1F (stereo unspecified) > 76.9 µM
Cc1cc(Nc2ccccc2)n(CCOC(=O)COc2ccccc2)n1 > 76.9 µM
COc1cccc(-c2cc(C(F)(F)F)nc(-n3cncn3)n2)c1 > 76.9 µM
CCOc1ccc(N(CC(=O)NC2CCCC2)C(=O)CCC(=O)Nc2ccccn2)cc1 > 76.9 µM
O=C1c2ccccc2-c2c1nc1c([n+]2[O-])CCCC1 > 76.9 µM
COc1ccc(/C=N/n2c(N)nc3ccccc32)cc1OC > 76.9 µM
CN(CCC#N)C(=O)CSc1ncnc2sc(-c3ccccc3)cc12 > 76.9 µM
Cc1[nH]c2c(C)cccc2c(=O)c1Br > 76.9 µM
CN=Cc1sc2ccccc2c1O > 76.9 µM
Cc1ccc(-n2c(Cc3cccs3)nnc2SCC(=O)Nc2ccc(S(N)(=O)=O)cc2)cc1
CC(C)NC(=O)c1ccc(-c2ccccc2C(F)(F)F)o1 > 76.9 µM
COc1cccc(C(=O)Nc2ccc(S(=O)(=O)NCc3ccco3)cc2)c1 > 76.9 µM
CC(C)(C)NC(=O)C1N(c2cccnc2)C(=O)C2C(C(=O)Nc3ccccc3)C3(C)C=CC21O3 (stereo unspecified) > 76.9 µM
CN(C)S(=O)(=O)c1ccc(C(=O)OCC(=O)c2ccc(OC(F)F)cc2OC(F)F)cc1 > 76.9 µM
COc1ccc(-c2nc3n(c(=O)c2C#N)CCCS3)cc1 > 76.9 µM
O=C1CN(C(=O)c2cccs2)c2ccccc2N1 > 76.9 µM
CC(=O)Nc1cc2c(=O)n(Cc3ccccc3)c(C)nc2cc1N1CCOCC1 > 76.9 µM
Cc1cccc(-n2c(SCC(=O)NCc3ccco3)nnc2-c2ccco2)c1 > 76.9 µM
CCCCN(CCCNC(=O)C1CCN(S(=O)(=O)N2CCOCC2)CC1)Cc1ccccc1 > 76.9 µM
C#CCn1c(=NC(=O)CSCC(=O)N2CCOCC2)sc2ccccc21 > 76.9 µM
CCOC(=O)CN1C(=O)COc2ccc(C(C)(C)C)cc21 > 76.9 µM
CCn1cc(Br)c(-c2nc3ccccc3c(=O)n2N)n1 > 76.9 µM
O=C(COc1ccccc1)Nc1cccc2nsnc12 > 76.9 µM
CS/C(=N\S(=O)(=O)c1ccc(N)cc1)NS(=O)(=O)c1cccs1 > 76.9 µM
O=c1cc(-c2ccccc2)[nH]n1-c1nc2ccccc2[nH]1 > 76.9 µM
COC(=O)c1cc(OC)c(OC)cc1NC(=O)c1ccoc1C > 76.9 µM
COc1ccccc1-n1nnnc1S(=O)(=O)Cc1ccc(Cl)cc1 > 76.9 µM
O=C(CN1C(=O)COc2ccccc21)c1cccc(Cl)c1 > 76.9 µM
COc1cccc(C2C(C(=O)OC(C)C)=C(C)Nc3ncnn32)c1 (stereo unspecified) > 76.9 µM
COCC(C)NC(=O)C1CC(=O)N(c2ccc(C)cc2)C1 (stereo unspecified) > 76.9 µM
O=C(NCCn1cccc1)c1cccc2ccccc12 > 76.9 µM
Cn1c(=O)cc(SCC(=O)NCCCN2CCN(c3ccc(F)cc3)CC2)c2ccccc21 > 76.9 µM
Cc1ccc(S(=O)(=O)NCCC(=O)N2CCCCC2)cc1 > 76.9 µM
CCCCN(C)C(=O)c1coc(=O)c2ccccc12 > 76.9 µM
CCCc1cc(=O)[nH]c(SCC(=O)NC(=O)OCC)n1 > 76.9 µM
COc1ccc(-c2nn3c(-c4ccc(F)cc4)nnc3s2)cc1 > 76.9 µM
CC(C)(C)NC(=O)CN(C(=O)c1ccc(CN2CCOCC2)o1)c1ccc2c(c1)OCCO2 > 76.9 µM
Nc1nc(CSc2nnnn2-c2ccc(F)c(Cl)c2)nc(N2CCOCC2)n1 > 76.9 µM
Cc1noc(C)c1COC(=O)CCCc1c[nH]c2ccccc12 > 76.9 µM
CCCSc1nc(N)c2c3c(sc2n1)CN(C)CC3 > 76.9 µM
OCCN1CN=C(Nc2nc3ccccc3o2)NC1 > 76.9 µM
CCn1c(SCC(=O)c2[nH]c(C)c(C(C)=O)c2C)nnc1-c1cccs1 > 76.9 µM
COc1ccc(S(=O)(=O)N(C)CC(=O)O)c2ccccc12 > 76.9 µM
CCOC(=O)c1sc(NC(=O)C2CCCO2)c(C(=O)OC)c1C (stereo unspecified) > 76.9 µM
C=C(C)CN(CC)c1nc(N)c(C#N)c(CC#N)c1C#N > 76.9 µM
CC(=O)N1CCN(S(=O)(=O)c2ccc(C)cc2)C1C(C)C (stereo unspecified) > 76.9 µM
CN(C)c1nc(C(=O)OCCO)nc(N(C)C)n1 > 76.9 µM
CC1CCCCN1C(=O)C1CC(c2ccc(F)cc2)=NO1 (stereo unspecified) > 76.9 µM
O=C(CSc1nnc(-c2cccs2)o1)OC1CCCCC1 > 76.9 µM
Cc1ccc(S(=O)(=O)NC(=O)Nc2c(C)n(C)n(-c3ccccc3)c2=O)cc1 > 76.9 µM
N#Cc1nc(-c2ccco2)oc1N1CCOCC1 > 76.9 µM
CC(C)CC(OC(=O)c1cccs1)C(=O)NCc1ccco1 (stereo unspecified) > 76.9 µM
COC(=O)[C@@H](NC(=O)NC1CCCc2ccccc21)C(C)C (stereo partly specified) > 76.9 µM
O=C(O)c1ccc(S(=O)(=O)c2ccccc2)cc1 > 76.9 µM
CCCn1c(=O)c2ccccc2n2c(SCCOc3ccc(C)cc3)nnc12 > 76.9 µM
CCn1c2ccc(CC(=O)O)cc2c2cc(CC(=O)O)ccc21 > 76.9 µM
Cc1ccc2nc(N3CCN(C)CC3)c(C#N)cc2c1 > 76.9 µM
Cn1c(=O)c2c(nc(NCc3cccnc3)n2Cc2cccc(C(F)(F)F)c2)n(C)c1=O > 76.9 µM
COC(=O)c1ccc(C)c(NC(=O)c2nn(C)c(=O)c3ccccc23)c1 > 76.9 µM
COc1ccccc1NC(=O)N(Cc1ccc2c(c1)OCO2)Cc1nc2ccccc2c(=O)[nH]1 > 76.9 µM
COc1ccccc1CNC(=O)CCN1C(=O)COc2ccccc21 > 76.9 µM
CC(=O)c1ccc(N2CCN(C(=O)CCS(=O)(=O)c3ccc(C)cc3)CC2)cc1 > 76.9 µM
CC(C)NC(=O)c1ccccc1-c1nc(-c2ccccc2Cl)no1 > 76.9 µM
COc1ccccc1NC(=O)C1CC(=O)N(c2ccc(F)cc2)C1 (stereo unspecified) > 76.9 µM
CCOC(=O)[C@H]1CCC[C@@H](NS(=O)(=O)c2ccc(NC(C)=O)cc2)C1 > 76.9 µM
CCN(CCNC(=O)C1CCN(S(=O)(=O)CC)CC1)c1ccccc1 > 76.9 µM
O=C(COc1ccc2c(c1)C(=O)CC1(CCCCC1)O2)NCc1ccccn1 > 76.9 µM
